Values quoted from earlier work as cited in PMC12418948, “Intranasal Administration of KCNN2 Blocking Peptide Improves Deficits in Cognitive Flexibility in Mouse Model of Fetal Alcohol Spectrum Disorders” (International Journal of Neuropsychopharmacology, 2025).
No end group written: not given here.

Conditions: intrathecal analgesic; cited from earlier work

Q: With “Ziconotide (CKGKGAKCSRLMYDCCTGSCRSGKC; not fully specified (C-terminus, bridges); cysteine pairing not given here; UniProt P05484 46-70, looked up)” as the substance, how does the “safety as a drug” value read?
A: Its value is “can safely be used as a drug”.
